Assay results reported in US10299477B2 (priority 2015, dated 2019).

Tests used:
Assay type in all cases: in vivo
[1] = tested on: Botrytis cinerea; test: Test Example B: Gray mold on tomato; conditions: for Test B control value: Gray mold on tomato
From the text: [Test Example B] Gray Mold on Tomato
Seeds of a test plant (tomato variety: Oogata Fukuju) were planted followed by cultivating until three to five first leaves (true leaves) appeared.

[2] = tested on: Alternaia brassicicola; test: Test Example C: Alternaria sooty spot on cabbage; conditions: Alternaria sooty spot on cabbage
From the text: [Test Example C] Alternaria Sooty Spot on Cabbage
Seeds of a test plant (cabbage variety: Shikidori) were planted followed by cultivating until the cotyledons extended.

[3] = tested on: Blumeria graminis f sp. hordei; test: Test Example D: Powdery mildew on barley; conditions: for Test D control value: Powdery mildew on barley
From the text: [Test Example D] Powdery Mildew on Barley
After the sprayed dilutions were dried, conidia of Blumeria graminis f sp. hordei were inoculated to the plants by shaking off.

[4] = tested on: Puccinia recondita; test: Test Example E: Brown rust on wheat; conditions: for Test E control value: Brown rust on wheat
From the text: [Test Example E] Brown Rust on Wheat

| SMILES | Test B control value [1] | Test C control value [2] | Test D control value [3] | Test E control value [4] | Test B (control value class) ([1]; gray mold on tomato, Botrytis cinerea, 250 ppm spray) | Test C (control value class) ([2]; 250 ppm spray) | Test D (control value class) ([3]; powdery mildew on barley, 250 ppm spray) | Test E (control value class) ([4]; brown rust on wheat, Puccinia recondita, 250 ppm spray) |
| --- | --- | --- | --- | --- | --- | --- | --- | --- |
| CCn1c(-c2c(F)cccc2F)c(-c2cc(OC)cc(OC)c2)ccc1=O [Compound 14] | H (H shows more than 50% of control values) | H (H shows more than 50% of control values) | L (L shows 50% or less of control values) | H (H shows more than 50% of control values) | – | – | – | – |
| Cn1c(-c2ncc(Cl)cc2Cl)c(-c2c(F)cccc2F)ccc1=O [Compound 5] | H (H shows more than 50% of control values) | H (H shows more than 50% of control values) | H (H shows more than 50% of control values) | H (H shows more than 50% of control values) | – | – | – | – |
| CCn1c(-c2c(F)cc(F)cc2F)c(-c2cc(OC)cc(OC)c2Cl)ccc1=O [Compound 133] | H (H shows more than 50% of control values) | H (H shows more than 50% of control values) | H (H shows more than 50% of control values) | H (H shows more than 50% of control values) | – | – | – | – |
| COc1ccc(F)c(-c2ccc(=O)n(C)c2-c2c(F)cccc2F)c1 [Compound 91] | H (H shows more than 50% of control values) | H (H shows more than 50% of control values) | H (H shows more than 50% of control values) | H (H shows more than 50% of control values) | – | – | – | – |
| CCN1C(=O)CCC(c2cc(OC)cc(OC)c2)=C1c1c(F)cc(Cl)cc1F [Compound 118] | H (H shows more than 50% of control values) | H (H shows more than 50% of control values) | H (H shows more than 50% of control values) | H (H shows more than 50% of control values) | – | – | – | – |
| CCn1c(-c2ncc(Cl)cc2Cl)c(-c2ccccc2)ccc1=O [Compound 10] | H (H shows more than 50% of control values) | H (H shows more than 50% of control values) | H (H shows more than 50% of control values) | H (H shows more than 50% of control values) | – | – | – | – |
| CCn1c(-c2c(F)cccc2F)c(-c2c(Cl)c(OC)cc(OC)c2Cl)ccc1=O [Compound 68] | H (H shows more than 50% of control values) | H (H shows more than 50% of control values) | H (H shows more than 50% of control values) | H (H shows more than 50% of control values) | – | – | – | – |
| C=CCN1C(=O)CCC(c2ccc(F)cc2Cl)=C1c1c(F)cc(OC)cc1F [Compound 43] | L (L shows 50% or less of control values) | H (H shows more than 50% of control values) | H (H shows more than 50% of control values) | H (H shows more than 50% of control values) | – | – | – | – |
| COc1cc(OC)cc(-c2ccc(=O)n(C)c2-c2c(F)cc(F)cc2F)c1 [Compound 134, 5-(3,5-dimethoxyphenyl)-1-methyl-6-(2,4,6-trifluorophenyl)pyridine-2(1H)-one] | H (H shows more than 50% of control values) | H (H shows more than 50% of control values) | H (H shows more than 50% of control values) | H (H shows more than 50% of control values) | – | – | – | – |
| CCn1c(-c2c(F)cccc2F)c(-c2cccc(OC)c2Cl)cc(Br)c1=O [Compound 66] | H (H shows more than 50% of control values) | H (H shows more than 50% of control values) | H (H shows more than 50% of control values) | H (H shows more than 50% of control values) | – | – | – | – |
| CCn1c(-c2c(F)cccc2F)c(-c2cccc(OC)c2Cl)ccc1=O [Compound 65] | H (H shows more than 50% of control values) | H (H shows more than 50% of control values) | H (H shows more than 50% of control values) | H (H shows more than 50% of control values) | – | – | – | – |
| COc1cc(F)c(C2=C(c3ccc(F)cc3Cl)CCC(=O)N2C)c(F)c1 [Compound 36] | H (H shows more than 50% of control values) | H (H shows more than 50% of control values) | H (H shows more than 50% of control values) | H (H shows more than 50% of control values) | – | – | – | – |
| CCn1c(-c2c(F)cccc2F)c(-c2cc(OC)ccc2F)ccc1=O [Compound 89] | H (H shows more than 50% of control values) | H (H shows more than 50% of control values) | H (H shows more than 50% of control values) | H (H shows more than 50% of control values) | – | – | – | – |
| CCn1c(-c2c(F)cccc2F)c(-c2c(Cl)c(OC)cc(OC)c2Br)ccc1=O [Compound 67] | H (H shows more than 50% of control values) | H (H shows more than 50% of control values) | L (L shows 50% or less of control values) | H (H shows more than 50% of control values) | – | – | – | – |
| CCn1c(-c2c(F)cccc2F)c(-c2ccccc2F)ccc1=O [Compound 140] | H (H shows more than 50% of control values) | H (H shows more than 50% of control values) | H (H shows more than 50% of control values) | H (H shows more than 50% of control values) | – | – | – | – |
| CCn1c(-c2c(F)cccc2F)c(-c2cc(OC)ccc2F)cc(Br)c1=O [Compound 88] | H (H shows more than 50% of control values) | H (H shows more than 50% of control values) | H (H shows more than 50% of control values) | H (H shows more than 50% of control values) | – | – | – | – |
| CCn1c(-c2c(F)cc(F)cc2F)c(-c2cccc(F)c2C)cc(C)c1=O [Compound 502] | – | – | – | – | H (H shows more than 50% of control values) | H (H shows more than 50% of control values) | H (H shows more than 50% of control values) | H (H shows more than 50% of control values) |
| Cn1c(-c2ncc(Cl)cc2Cl)c(-c2ccc(F)cc2)cc(Br)c1=O [Compound 22] | H (H shows more than 50% of control values) | H (H shows more than 50% of control values) | H (H shows more than 50% of control values) | H (H shows more than 50% of control values) | – | – | – | – |
| Cn1c(-c2c(F)cccc2F)c(-c2ccc(F)cc2)ccc1=O [Compound 19] | H (H shows more than 50% of control values) | H (H shows more than 50% of control values) | H (H shows more than 50% of control values) | H (H shows more than 50% of control values) | – | – | – | – |
| COc1cc(F)c(-c2c(-c3ccc(F)cc3Cl)ccc(=O)n2CCF)c(F)c1 [Compound 45] | H (H shows more than 50% of control values) | H (H shows more than 50% of control values) | H (H shows more than 50% of control values) | H (H shows more than 50% of control values) | – | – | – | – |
| CCn1c(-c2c(F)cccc2F)c(-c2ccc(F)cc2Cl)ccc1=O [Compound 59] | H (H shows more than 50% of control values) | H (H shows more than 50% of control values) | H (H shows more than 50% of control values) | H (H shows more than 50% of control values) | – | – | – | – |
| COc1ccccc1-c1ccc(=O)n(C)c1-c1c(F)cccc1F [Compound 137] | H (H shows more than 50% of control values) | H (H shows more than 50% of control values) | H (H shows more than 50% of control values) | H (H shows more than 50% of control values) | – | – | – | – |
| CCn1c(-c2c(F)cccc2F)c(-c2ccccc2Br)ccc1=O [Compound 85] | H (H shows more than 50% of control values) | H (H shows more than 50% of control values) | H (H shows more than 50% of control values) | H (H shows more than 50% of control values) | – | – | – | – |
